# This is one part of the list. Single values are uncertain, as repeats are few or missing.
# Tests used:
# Assay in all cases: cell count relative to DMSO control; melanoma cells; higher = more viable cells
# Conditions in all cases: library dose: low library concentration; 72 h
# COLO792 = test system: COLO792
# COLO800 = test system: COLO800
# COLO829 = test system: COLO829
# G361 = test system: G361
# IPC-298 = test system: IPC-298
# IST-MEL1 = test system: IST-MEL1
# LB2518-MEL = test system: LB2518-MEL
# LOXIMVI = test system: LOXIMVI
# MEL-HO = test system: MEL-HO
# 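Note: cell number obtained by counting DAPI-stained nuclei in high-throughput microscope images with image analysis software, screen run in 1,536-well plates.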
SMILES,cell count (COLO792),cell count (COLO800),cell count (COLO829),cell count (G361),cell count (IPC-298),cell count (IST-MEL1),cell count (LB2518-MEL),cell count (LOXIMVI),cell count (MEL-HO)
"Cc1ccc(Nc2nccc(N(C)c3ccc4c(C)n(C)nc4c3)n2)cc1S(N)(=O)=O [Pazopanib] + C[C@@H]1CCN(C(=O)CC#N)C[C@@H]1N(C)c1ncnc2[nH]ccc12 [CP690550] (first compound 0.4 µM, partner dose 1 µM)",97.4%,89.8%,118%,101%,79.6%,102%,104%,120%,101%
"O=C(/C=C/c1cccnc1)NCCCCC1CCN(C(=O)c2ccccc2)CC1 + COc1cc2c(Oc3ccc4[nH]c(C)cc4c3F)ncnc2cc1OCCCN1CCCC1 [cediranib] (first compound 0.01 µM, partner dose 0.4 µM)",56.1%,15.6%,63.9%,12%,43%,60.9%,95.9%,84%,36.8%
"CC1(C)CCC(c2ccc(Cl)cc2)=C(CN2CCN(c3ccc(C(=O)NS(=O)(=O)c4ccc(N[C@H](CCN5CCOCC5)CSc5ccccc5)c(S(=O)(=O)C(F)(F)F)c4)cc3)CC2)C1 + COc1cc2c(Oc3ccc4[nH]c(C)cc4c3F)ncnc2cc1OCCCN1CCCC1 [cediranib] (first compound 0.4 µM, partner dose 0.4 µM)",46%,27.3%,99.4%,92.4%,104%,71.2%,84.9%,39.1%,71.4%
"Cc1ccc(Nc2nccc(N(C)c3ccc4c(C)n(C)nc4c3)n2)cc1S(N)(=O)=O [Pazopanib] + O=C(Nc1ccccc1)c1cc([N+](=O)[O-])ccc1Cl [GW9662] (first compound 0.4 µM, partner dose 2 µM)",101%,156%,68.2%,100%,78%,98.8%,105%,81.4%,104%
"O=C(/C=C/c1cccnc1)NCCCCC1CCN(C(=O)c2ccccc2)CC1 + CO[C@@H]1[C@H](N(C)C(=O)c2ccccc2)C[C@H]2O[C@]1(C)n1c3ccccc3c3c4c(c5c6ccccc6n2c5c31)C(=O)NC4 [Midostaurin] (first compound 0.01 µM, partner dose 0.08 µM)",50.2%,30.4%,64.5%,9.06%,35.4%,58.7%,80.7%,62.3%,34.2%
"O=C(/C=C/c1cccnc1)NCCCCC1CCN(C(=O)c2ccccc2)CC1 + COc1ccc(-c2ccc3c(N4CCOCC4)nc(N4C[C@@H](C)O[C@@H](C)C4)nc3n2)cc1CO [KU0063794] (first compound 0.01 µM, partner dose 0.02 µM)",55.1%,39.9%,85.3%,10.8%,41.5%,73.9%,87.7%,45.3%,42.7%
"CC1(C)CCC(c2ccc(Cl)cc2)=C(CN2CCN(c3ccc(C(=O)NS(=O)(=O)c4ccc(N[C@H](CCN5CCOCC5)CSc5ccccc5)c(S(=O)(=O)C(F)(F)F)c4)cc3)CC2)C1 + C[C@@H]1CCN(C(=O)CC#N)C[C@@H]1N(C)c1ncnc2[nH]ccc12 [CP690550] (first compound 0.4 µM, partner dose 1 µM)",60.8%,65.4%,103%,87.9%,90.7%,75.8%,89.8%,55.7%,78.4%
"Cc1ccc(Nc2nccc(N(C)c3ccc4c(C)n(C)nc4c3)n2)cc1S(N)(=O)=O [Pazopanib] + O=C(CCCCCCC(=O)Nc1ccccc1)NO [vorinostat] (first compound 0.4 µM, partner dose 0.08 µM)",103%,81.8%,83.1%,88.8%,84%,98.9%,121%,91.8%,118%
"CC1(C)CCC(c2ccc(Cl)cc2)=C(CN2CCN(c3ccc(C(=O)NS(=O)(=O)c4ccc(N[C@H](CCN5CCOCC5)CSc5ccccc5)c(S(=O)(=O)C(F)(F)F)c4)cc3)CC2)C1 + CC(C)CCN1c2nc(Nc3cc(F)c(O)c(F)c3)ncc2N(C)C(=O)C1C [BID1870] (first compound 0.4 µM, partner dose 0.2 µM)",49.4%,53.6%,88.1%,76.3%,101%,78%,99.5%,80.3%,68.6%
"O=C(/C=C/c1cccnc1)NCCCCC1CCN(C(=O)c2ccccc2)CC1 + Oc1nc(-c2ccc(C(F)(F)F)cc2)nc2c1CSCC2 [XAV939] (first compound 0.01 µM, partner dose 2 µM)",64.4%,32.8%,63.7%,26.6%,52.4%,85.6%,95.8%,96.7%,62.7%
"CC1(C)CCC(c2ccc(Cl)cc2)=C(CN2CCN(c3ccc(C(=O)NS(=O)(=O)c4ccc(N[C@H](CCN5CCOCC5)CSc5ccccc5)c(S(=O)(=O)C(F)(F)F)c4)cc3)CC2)C1 + Cc1cc([N+](=O)[O-])ccc1NS(=O)(=O)c1cc(Cl)ccc1Cl [FH535] (first compound 0.4 µM, partner dose 1 µM)",51.6%,37.2%,95.7%,67%,80.6%,44.3%,78.4%,67.8%,69.5%
"Cc1ccc(Nc2nccc(N(C)c3ccc4c(C)n(C)nc4c3)n2)cc1S(N)(=O)=O [Pazopanib] + Cn1cncc1[C@@](N)(c1ccc(Cl)cc1)c1ccc2c(c1)c(-c1cccc(Cl)c1)cc(=O)n2C [tipifarnib] (first compound 0.4 µM, partner dose 0.01 µM)",92.5%,69.8%,111%,115%,90.6%,90%,78.3%,96.6%,104%
"O=C(/C=C/c1cccnc1)NCCCCC1CCN(C(=O)c2ccccc2)CC1 + CCCCCCCCCCCC1=C(O)C(=O)C=C(O)C1=O [Embelin] (first compound 0.01 µM, partner dose 1.2 µM)",59.9%,31%,95.2%,22.9%,53.2%,78.9%,63.5%,75.4%,70.4%
"CC1(C)CCC(c2ccc(Cl)cc2)=C(CN2CCN(c3ccc(C(=O)NS(=O)(=O)c4ccc(N[C@H](CCN5CCOCC5)CSc5ccccc5)c(S(=O)(=O)C(F)(F)F)c4)cc3)CC2)C1 + CN(C)S(=O)(=O)c1ccc2c(c1)/C(=C/c1cc3c([nH]1)CCCC3)C(=O)N2 [SU6656] (first compound 0.4 µM, partner dose 0.4 µM)",54.7%,47%,105%,67.9%,94.4%,74.1%,88.8%,123%,83.8%
"O=C(/C=C/c1cccnc1)NCCCCC1CCN(C(=O)c2ccccc2)CC1 + C[C@@H]1CCN(C(=O)CC#N)C[C@@H]1N(C)c1ncnc2[nH]ccc12 [CP690550] (first compound 0.01 µM, partner dose 1 µM)",53.1%,24.4%,71.2%,8.48%,41.4%,63.8%,89%,52%,45.6%
"Cc1ccc(Nc2nccc(N(C)c3ccc4c(C)n(C)nc4c3)n2)cc1S(N)(=O)=O [Pazopanib] + Cc1ccc(NC(=O)c2cccc(N(C)C)c2)cc1NC(=O)c1ccc(O)cc1 [ZM336372] (first compound 0.4 µM, partner dose 2 µM)",114%,99.3%,110%,109%,78.3%,99.4%,93%,67.4%,99.6%
"Cc1ccc(Nc2nccc(N(C)c3ccc4c(C)n(C)nc4c3)n2)cc1S(N)(=O)=O [Pazopanib] + CC(C)(C)c1cnc(CSc2cnc(NC(=O)C3CCNCC3)s2)o1 [SNS-032] (first compound 0.4 µM, partner dose 0.01 µM)",101%,107%,96.5%,97.7%,91.8%,101%,105%,108%,104%
"Cc1ccc(Nc2nccc(N(C)c3ccc4c(C)n(C)nc4c3)n2)cc1S(N)(=O)=O [Pazopanib] + Cc1cc(N2CCOCC2)cc2[nH]c(-c3c(NC[C@@H](O)c4cccc(Cl)c4)cc[nH]c3=O)nc12 [BMS536924] (first compound 0.4 µM, partner dose 0.2 µM)",72.5%,43.3%,96%,85.2%,83.2%,98.2%,117%,75%,91.3%
"Cc1ccc(Nc2nccc(N(C)c3ccc4c(C)n(C)nc4c3)n2)cc1S(N)(=O)=O [Pazopanib] + NCC(=O)Nc1ccc(-n2nc(C(F)(F)F)cc2-c2ccc3c(ccc4ccccc43)c2)cc1 [OSU03012] (first compound 0.4 µM, partner dose 1 µM)",96.7%,120%,72.5%,120%,77.3%,88.5%,106%,71.1%,100%
"Cc1ccc(Nc2nccc(N(C)c3ccc4c(C)n(C)nc4c3)n2)cc1S(N)(=O)=O [Pazopanib] + COc1cc2ncnc(Nc3ccc(Oc4ccccc4)cc3)c2cc1OC [SrcI1] (first compound 0.4 µM, partner dose 2 µM)",93.2%,152%,120%,84.6%,82.3%,95.9%,120%,92.8%,105%
"CC1(C)CCC(c2ccc(Cl)cc2)=C(CN2CCN(c3ccc(C(=O)NS(=O)(=O)c4ccc(N[C@H](CCN5CCOCC5)CSc5ccccc5)c(S(=O)(=O)C(F)(F)F)c4)cc3)CC2)C1 + CC(C)(C)c1cnc(CSc2cnc(NC(=O)C3CCNCC3)s2)o1 [SNS-032] (first compound 0.4 µM, partner dose 0.01 µM)",56.7%,61.5%,99.6%,82.6%,102%,72.8%,71.4%,61.9%,91.4%
"O=C(/C=C/c1cccnc1)NCCCCC1CCN(C(=O)c2ccccc2)CC1 + COc1cc(N2CCC(N3CCN(C)CC3)CC2)ccc1Nc1ncc(Cl)c(Nc2ccccc2S(=O)(=O)C(C)C)n1 [NVP-TAE684] (first compound 0.01 µM, partner dose 0.08 µM)",48%,24.2%,76.1%,7.08%,42.3%,69.9%,88.3%,96.2%,60.9%

# Reference: the supplement of paper PMC4604168 (melanoma cell lines)
